Data as given in paper PMC12136788.
Some of the results follow.

B1: chr13:45957189:45957298:-|CDS|ENSG00000123200|unk|total|mutant (ssRNA)
RNA: GGGAGUUCUACAGUCCGACGAUCUGUUUUUGUUUUCUUCAAACCGGGCACCAUAAAACAAGCUUACACGAGUGCUCCAAUGGCCGACAAUGAAUUACUUCGAUUGAGUCUUCGGUUAUUUAAGCGGAAGACUACUUGCCAUGCCAACAGAGGAUUGAGCAUCA
B2: chr1:9614578:9614679:+|3pUTR|ENSG00000188807|msi1|FALSE|unique (ssRNA)
RNA: GGGAGUUCUACAGUCCGACGAUCUCCAGCUGCCAGCAAUGGUUCCAACUCGGAGGCAGCGCCUCUUGGUCCCCAUUUCUGUAUAGCAGGCGUGUGUGUGUGUGUCGAGGUUUUUUAUUUUUUGCUUAAUCAAACUCCAUUCCCCAACAGAGGAUUGAGCAUCA
B3: chr5:72209348:72209524:+|3pUTR|ENSG00000131711|msi1_unk|FALSE|overlapping (ssRNA)
RNA: GGGAGUUCUACAGUCCGACGAUCUUAUGUCUUAUAAUCCUGCAUCACUUCUAUCCUAUCCAGUCAUAUCUAAUGUAGAAAAUUAGUUUCCAGUGAAAGUAAUAUGUAGUGCUUUUAUGAUAUUUGUGUGCAAUAUCCCCUCUUCAACAGAGGAUUGAGCAUCA
B4: chr22:38736040:38736148:-|3pUTR|ENSG00000100242|msi1|total|mutant (ssRNA)
RNA: GGGAGUUCUACAGUCCGACGAUCCCCCAUGCAGAUGAAAAGGACGGGCAGGGUCUCCUGAGCAGCAGGUGGCUCGAGGCGGUCCGCAGGCUCCAGCAGCUCCCUUCUUCCUUCCCUCUGUGCCCGUGGCGUCUGCUUCCCAUCCAACAGAGGAUUGAGCAUCA
B5: chr1:23091194:23091296:-|CDS|ENSG00000169641|unk|FALSE|unique (ssRNA)
RNA: GGGAGUUCUACAGUCCGACGAUCCUCCAGAAGGACCCAAAGUAGCCUCACUGUGUCAGAGGUGCUUACCCGUCGGAAUCGGGUAGGAGACACCAUCACUGUCGCAGCCUGGAACCACUCAGCAAGCAUGGUGAGUUCCAGCCUCAACAGAGGAUUGAGCAUCA
B6: chr9:111714444:111714623:-|CDS|ENSG00000165181|control|control|control (ssRNA)
RNA: GGGAGUUCUACAGUCCGACGAUCAGCAUUUUAGGCCCCUAUUUGGGUGACAUUUGGAGACAGCUGGAGAUUGUACAGUUUAUUAGGGGGAAAAAGCCUGAAACCAACUACAAGAUACAAGAAUUGCAAUGUCAGAUACUAAGUCAACAGAGGAUUGAGCAUCA
B7: chr17:41822664:41822765:+|3pUTR|ENSG00000141756|msi1|total|mutant (ssRNA)
RNA: GGGAGUUCUACAGUCCGACGAUCUUCCUUAAAAUGUUUGGAUUUGCAAAGCCAAUUUGGGGCCUGUGGAGCCUGGGGUUGGACCGGGCCAUGGCUGGUCCCCCACCAUACCUCCCCUCCACAUCACUGACACAGCUGAGCUUGCAACAGAGGAUUGAGCAUCA
B8: chr15:43456694:43456846:-|CDS|ENSG00000067369|unk|FALSE|unique (ssRNA)
RNA: GGGAGUUCUACAGUCCGACGAUCAGACACCAGGGAUGACAUUAGUAUUUUAGCCACUGGUUGCAAGGGCAGAGAAGAAACGGUAGCAGAAGAUGUUUGUAUUGAUCUCACUUGUGAUUCGGGGAGUCAGGCAGUUCCGUCACCCAACAGAGGAUUGAGCAUCA
B9: chr19:41261474:41261596:+|3pUTR|ENSG00000167601|msi1|FALSE|unique (ssRNA)
RNA: GGGAGUUCUACAGUCCGACGAUCUCUAAAGGUCCACAGGUCUAGACUAUUAGGUGCAAUUUCAAGGUUCUAACCCUAUACUGUAGUAUUCUUUGGGGUGCCCCUCUCCUUCUUAGCUAUCAUUGCUUCCUCCUCCCCAACUGUCAACAGAGGAUUGAGCAUCA
B10: chr10:73423578:73424772:-|three_prime_utr|ENSG00000166343|control|control|control (ssRNA)
RNA: GGGAGUUCUACAGUCCGACGAUCCCAGUAUACUGCAGUGCAUACUAUAUCAUGUUUCUUGGAAGCUCCUGUCAGCUGGAUAAUAGGCAAUUAGAAGAGAAAGUGGACGGCGGGAUUUAAAUAGAUCAUAACUGGACAUCUGGACAACAGAGGAUUGAGCAUCA
B11: chr9:15468732:15468834:-|CDS|ENSG00000164985|unk|total|mutant (ssRNA)
RNA: GGGAGUUCUACAGUCCGACGAUCAAUCCGGAAAACAAUUAUGAUGAAUGUAUAUUGUUUUCUCAGAUACGGCGAUUCAAAGUCCGUCAGGUAAUCAUGGAAAAGUCUACAAUGUUGUAUAACAAGUUUAAGAACAUGUUCUUGCAACAGAGGAUUGAGCAUCA
B12: chr6:1612588:1612689:+|3pUTR|ENSG00000054598|msi1|total|mutant (ssRNA)
RNA: GGGAGUUCUACAGUCCGACGAUCUUUAUUCAUGGACUUGUUUUAAAAUGUAAAUUGCAACACCGUAAUUUAUUUUUAAUUUGCCGUUGGAUGUCGUGGACCAAACGCCAGAAAGUGUUCCCAAAACCUGACGUUAAAUUGCCUCAACAGAGGAUUGAGCAUCA
B13: chr1:198253062:198253183:+|CDS|ENSG00000151414|unk|total|mutant (ssRNA)
RNA: GGGAGUUCUACAGUCCGACGAUCAUGGGCUAUAAUACAUCCGCCAACUUUCGAACCGAAAAGAAAAUUGGUCGCGGACAAUUCCGUGAAGUUUACCGAGCAGCCUGUCUCUUGGAUGGAGUACCAGCCGCUUUAAAAAAAGUGCAACAGAGGAUUGAGCAUCA
B14: chr12:48342538:48342639:-|3pUTR|ENSG00000167528|unk|FALSE|unique (ssRNA)
RNA: GGGAGUUCUACAGUCCGACGAUCUUGUUAAACAUUUUGAGUAUCACUCUUGCAUACUGUUACUAUUAUAUUUUCUCUAUAUAUAGACAGAAAGGCCAUUUUAGAAUAUUAAAGGCUCUGAAAAUUUCUGCAGUAGACCCAACUCAACAGAGGAUUGAGCAUCA
B15: chr9:130903550:130903651:-|3pUTR|ENSG00000130720|msi1|total|mutant (ssRNA)
RNA: GGGAGUUCUACAGUCCGACGAUCAAAUACCCGGCAUUAUGGGGACAGAGAGCAGGGGGCAGACAGCACCCCUGGAGUCCUCCCCGCAGAUCGUGGGGAACGUCAGGUCUCUCUGAGGUCAGGUCUGAGGCCAGUAUCCUCCAGCAACAGAGGAUUGAGCAUCA
B16: chr12:50222030:50222167:-|CDS|ENSG00000050405|unk|FALSE|bound_elsewhere (ssRNA)
RNA: GGGAGUUCUACAGUCCGACGAUCAUCCAGGCAUGAAGUAGAAAAAUCAGAAAUCAGUGAAAACACAGAUGCUUCGGGCAAAAUAGAGAAAUAUAAUGUUCCGCUGAACAGGCUUAAGAUGAUGUUUGAGAAAGGUGAACCAACCAACAGAGGAUUGAGCAUCA
B17: chr2:32415991:32416109:+|CDS|ENSG00000115760|unk|FALSE|unique (ssRNA)
RNA: GGGAGUUCUACAGUCCGACGAUCUGACAUUUCUACUCUUGGACACCUGGUAAUAACCACUCAGGGAGGAUAUGUAAAAAUACUAGAUCUUUCAAACUUUGAAAUUUUGGCCAAAGUGGAGCCUCCCAAAAAGGAGGGCACUGACAACAGAGGAUUGAGCAUCA
B18: chr1:965281:965395:+|3pUTR|ENSG00000187961|unk|total|mutant (ssRNA)
RNA: GGGAGUUCUACAGUCCGACGAUCCCAUCCGUUCACGUCUCUGCAUCCAUUCCUUCAUGUCUUUAUUCCGUUGUUUAUUUAUUCCGUUAUUUAUCUUAUUUAUUGAGGGGUGAGGAGUGCCACGGCUGCCCGUUUACACCUUUACAACAGAGGAUUGAGCAUCA
B19: chr12:120764159:120764260:-|3pUTR|ENSG00000157837|msi1|total|mutant (ssRNA)
RNA: GGGAGUUCUACAGUCCGACGAUCACACACACACCGAUAUAUAUGAAUAAACAAAAAUGAAAUCCUGCUAAGAUCACGCUGUGCCGCUGACAGGGGCUUGCUGUCGUUUUGAGCAUGUCGAGCAGUUUACUGUGGCUUCCUUGUCAACAGAGGAUUGAGCAUCA
B20: chr14:103559255:103559356:-|3pUTR|ENSG00000166170|msi1|total|mutant (ssRNA)
RNA: GGGAGUUCUACAGUCCGACGAUCGCUUAACGGGGUGGGGUUUUUUUGUUUGUUCAGACAGUCUGUUCUUUUGUAAACAUUUUCCGUUGGAAAAACAGCAUCUGCAUUUUCCCCAUCCUCUACGUUUCCGAGAGGAAUCUUGUUCAACAGAGGAUUGAGCAUCA
B21: chr15:90882754:90882855:+|3pUTR|ENSG00000140564|msi1_unk|FALSE|overlapping (ssRNA)
RNA: GGGAGUUCUACAGUCCGACGAUCCACUUUGUGAUUAUUUCACUUUAGAUGCUGAUGAUUUGUUUUUGUAUUUUUAAUGGGGGUAGCAGCUGGACUACCCACGUUCUCACACCCACCGUCCGCCCUGCUCCUCCCUGGCUGCCCCAACAGAGGAUUGAGCAUCA
B22: ENSG00000205339:stop:overlap|stop_codon|ENSG00000205339|stop_codon|NA|stop_codon (ssRNA)
RNA: GGGAGUUCUACAGUCCGACGAUCGGCUCGCCACAACCUCCGCCUCCCGGAUUCGGGCAAUUCUCCUGCCUCAGCCUCUUGAGUAGCUGGGAUUACAGGUGUUAUCUAUCUGAAAAAUAUGAUAACACAGUAUUGGCCUGAUCGCAACAGAGGAUUGAGCAUCA

What follows are binders tested against MSI1 full-length (mouse, UniProt Q61474 1-362) (assay: nsRBNS (natural sequence RNA bind-n-seq); RBNS binding buffer (assumed for nsRBNS): 25 mM Tris pH 7.5, 150 mM KCl, 3 mM MgCl2, 0.01% Triton X-100, 500 ug/ml BSA, 20 U/ml SUPERase-In, 4 C; UNK is unkempt and MSI1 is Musashi-1; names of the RNAs are library labels; protein concentration not given here; high values mean tight binding).
UniProt Q61474, sequence (Q61474 whole entry): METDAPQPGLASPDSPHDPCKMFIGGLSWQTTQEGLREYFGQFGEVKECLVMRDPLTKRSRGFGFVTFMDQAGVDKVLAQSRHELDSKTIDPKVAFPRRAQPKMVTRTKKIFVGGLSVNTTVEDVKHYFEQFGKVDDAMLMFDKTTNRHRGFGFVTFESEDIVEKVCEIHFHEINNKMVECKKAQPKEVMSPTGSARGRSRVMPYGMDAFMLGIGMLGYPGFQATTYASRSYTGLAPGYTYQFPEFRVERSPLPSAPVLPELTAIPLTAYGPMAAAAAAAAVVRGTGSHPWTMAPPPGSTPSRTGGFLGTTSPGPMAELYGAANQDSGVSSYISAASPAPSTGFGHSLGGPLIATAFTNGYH
B1 was tested, and the binding signal was 0.222 enrichment R. For B2, the binding signal was 0.651 enrichment R. With B3 the binding signal was 22.2 enrichment R. In the case of B4, the binding signal is reported as 0.688 enrichment R. Work on B5 yielded a binding signal of 0.229 enrichment R. Binder B6 has a binding signal of 1.47 enrichment R. B7 gave a binding signal of 0.412 enrichment R. In the case of B8, the binding signal is reported as 3.82 enrichment R. In the case of B9, the binding signal is reported as 3.39 enrichment R. For B10, the binding signal was 3.04 enrichment R. With B11 the binding signal was 0.21 enrichment R. B12 was tested, and the binding signal was 0.235 enrichment R. With B13 the binding signal was 0.279 enrichment R. B14 was tested, and the binding signal was 10.8 enrichment R. For B15, the binding signal was 0.394 enrichment R. Binder B16 has a binding signal of 7.03 enrichment R. B17 gave a binding signal of 0.339 enrichment R. With B18 the binding signal was 8.96 enrichment R. With B19 the binding signal was 0.651 enrichment R. With B20 the binding signal was 0.302 enrichment R. Work on B21 yielded a binding signal of 0.914 enrichment R. Work on B22 yielded a binding signal of 0.375 enrichment R.
